These results are taken from the supplement of paper PMC7826260.

This is one part of the list. The data describe in vitro nicking of single-stranded DNA by Rep domains (3 µM enzyme, 1 h, 37 °C); shown is the middle of each 90-letter strand. The score is log2 (uncut reads / reads without enzyme); more negative means more cut, near 0 not cut, and no call is made. The scaling is to total reads, so uncut sequences can rise above 0 when many others are cut.

The subject of this assay is T1, Rep nickase domain of tomato golden mosaic virus.
T1 sequence (residues 1-124 of Rep, tag left off): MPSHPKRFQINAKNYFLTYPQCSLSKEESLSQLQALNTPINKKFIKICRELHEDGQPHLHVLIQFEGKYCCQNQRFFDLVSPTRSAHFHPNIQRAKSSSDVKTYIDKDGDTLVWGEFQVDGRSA
The assay is described as follows: uncleaved DNA left, log2 of reads against the no-enzyme library (log2 ratio); higher = less cleavage (more negative = more Rep cleavage of the k-mer); sequences stand for … in CTCGTCCG…ACCGGAGA
As for the experimental part: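 A pool of 90-nt single-stranded DNAs with seven random bases just before the constant AC of the nick site (name = the seven bases) was cut by 3 µM recombinant His6-SUMO-tagged Rep nickase domain (300 nM DNA, 50 mM HEPES pH 8.0, 50 mM NaCl, 1 mM MnCl2, 1 h, 37 °C, three replicates). Uncut DNA was amplified and sequenced.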
For the sequence GGGCAGT, the “uncleaved DNA left (log2)” value was -0.0534.
The result for GTCGCTT reads -0.086; that for GGAAGTG, -0.0895; that for AGCTAAT, -0.117.
The result for GCCTGCC reads 0.0645; that for CGGACTG, 0.109; that for ATGTTGA, -0.0478.
As to TCATTTA, the “uncleaved DNA left (log2)” value is -0.104.
Then GATCCGA, with 0.0669.
The result for GCCGACT reads -0.238; that for GTAAGTT, 0.00462; that for TGTATTG, -0.0357.
The result for TTATAGA reads 0.0275; that for GTCTGCG, -0.137; that for TGTTAAA, 0.0545.
Consider GAAACAA, for which the “uncleaved DNA left (log2)” value was determined as 0.0323.
As for GTGATCG, the “uncleaved DNA left (log2)” value was -0.147.
Turning to GGACTCG, the “uncleaved DNA left (log2)” value was -0.0304.
For GAAAAGA, the “uncleaved DNA left (log2)” value worked out at 0.0833.
Then ATTAAAC, with -0.023.
The result for ATTGCAG reads -0.0218.
The result for GTATCGA reads 0.0236; that for TAATATA, -2.65.
For GATGAAT, the “uncleaved DNA left (log2)” value stood at 0.175.
The result for GCAACTG reads -0.0212; that for ATCGGCG, 0.0172.
Then GATGTAT, with 0.0467; and CTTATCA, with 0.11.
Then GTCGTTA, with -0.0085; and CGCCGTT, with -0.176; and TTATTGC, with -0.0222.
On to ACGGCTT, for which the “uncleaved DNA left (log2)” value came to 0.0526.
With TCCTATT, the “uncleaved DNA left (log2)” value is -0.27.
Then GAATCTA, with -0.0514; and CCCAATA, with -0.106.
The result for TGCGGTG reads 0.233; that for CCTCTAC, 0.0946.
The result for ACCAGCG reads -0.00354.
For TGGCCGA, the “uncleaved DNA left (log2)” value is -0.0518.
Consider GCGCTCA, for which the “uncleaved DNA left (log2)” value was -0.112.
